Laboratory results from PMC12074784 (Journal of the American Heart Association: Cardiovascular …, 2025).

Biological target: T1, caveolin-1 (rat (endogenous in rat cardiomyocytes), UniProt P41350 1-178)
T1 sequence (looked up): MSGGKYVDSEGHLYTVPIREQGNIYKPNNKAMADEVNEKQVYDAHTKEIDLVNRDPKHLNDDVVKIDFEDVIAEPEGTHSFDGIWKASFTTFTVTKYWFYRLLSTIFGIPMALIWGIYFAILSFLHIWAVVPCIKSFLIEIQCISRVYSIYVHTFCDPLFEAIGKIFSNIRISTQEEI
Experiment: co-IP

B1: connexin-43 (natural protein)
chain: not shown
  co-IP band ratio Cx43/Cav-1, Sham group: 0.77
